The source of these data is article PMC4336329 (PLoS ONE, 2015).

SMILES strings stand for the structures. Among all 310,000 compounds or so, about 14,000 (4.5%) showed an effect of 50% or more. The effect is printed as a negative number. Some of the results follow. Where a SMILES comes first, the peptide text is derived from it. [ ]: non-standard residue; d: D form. pGlu = O=C1CC[CH](C(=O)O)N1
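Note: peak tail current of the secondary pulse compared with the same well before compound.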

Chain of human ether-à-go-go-related gene (hERG) potassium channel (Q12809 whole entry, looked up): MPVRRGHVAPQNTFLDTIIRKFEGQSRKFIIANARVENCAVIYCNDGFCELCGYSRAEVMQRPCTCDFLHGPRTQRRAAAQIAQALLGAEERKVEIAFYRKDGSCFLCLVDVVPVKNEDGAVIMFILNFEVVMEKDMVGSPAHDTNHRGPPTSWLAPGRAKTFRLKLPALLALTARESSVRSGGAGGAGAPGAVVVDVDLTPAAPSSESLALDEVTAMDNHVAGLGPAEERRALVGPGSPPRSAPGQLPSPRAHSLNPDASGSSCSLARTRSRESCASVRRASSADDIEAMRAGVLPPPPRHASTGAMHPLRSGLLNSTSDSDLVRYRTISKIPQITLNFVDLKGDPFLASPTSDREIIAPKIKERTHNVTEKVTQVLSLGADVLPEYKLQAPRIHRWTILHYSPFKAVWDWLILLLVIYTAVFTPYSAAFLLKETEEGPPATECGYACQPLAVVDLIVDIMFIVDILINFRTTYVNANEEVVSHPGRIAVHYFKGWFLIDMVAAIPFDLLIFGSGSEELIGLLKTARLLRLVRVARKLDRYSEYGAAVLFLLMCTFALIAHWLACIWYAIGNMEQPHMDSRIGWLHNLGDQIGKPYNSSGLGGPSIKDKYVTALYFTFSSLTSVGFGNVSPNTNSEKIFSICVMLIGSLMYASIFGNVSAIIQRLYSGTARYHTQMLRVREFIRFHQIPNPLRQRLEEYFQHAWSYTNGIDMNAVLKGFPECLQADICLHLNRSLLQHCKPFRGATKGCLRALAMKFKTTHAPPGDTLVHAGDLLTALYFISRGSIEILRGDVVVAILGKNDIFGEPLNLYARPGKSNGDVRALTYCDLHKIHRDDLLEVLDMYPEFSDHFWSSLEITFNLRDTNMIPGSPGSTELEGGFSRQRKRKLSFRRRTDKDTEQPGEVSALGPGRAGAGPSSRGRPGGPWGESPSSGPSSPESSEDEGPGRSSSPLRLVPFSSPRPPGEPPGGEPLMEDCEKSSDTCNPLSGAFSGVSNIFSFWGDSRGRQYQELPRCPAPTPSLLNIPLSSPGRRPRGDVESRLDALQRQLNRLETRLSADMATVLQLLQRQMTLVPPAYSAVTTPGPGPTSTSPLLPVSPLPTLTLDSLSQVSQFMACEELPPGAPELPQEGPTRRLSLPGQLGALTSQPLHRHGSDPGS

This test addresses human ether-à-go-go-related gene (hERG) potassium channel (human, UniProt Q12809). Kind of test: primary screen, population patch clamp on CHO cells stably expressing hERG.
`O=S1(=O)CC(NCc2ccccc2)C(Nc2ccccc2)C1` (centres unmarked): the “hERG current change (%, negative = inhibition) at 10uM” value is on record as -21.2%.
`Cc1ccc(C(=O)NC2CCN(CC(=O)NC3CCC(C)CC3)CC2)cc1` (centres unmarked): the “hERG current change (%, negative = inhibition) at 10uM” value amounted to 7.67%.
Turning to `COc1ccc(-c2cc(C(=O)N(C)Cc3ccc(OC)c(OC)c3OC)c3ccccc3n2)cc1OC`, the “hERG current change (%, negative = inhibition) at 10uM” value is recorded as -5.07%.
Then `CC1CCCc2sc3nc(N4CCN(CCO)CC4)n4ncnc4c3c21` (centres unmarked), with -25.6%.
Then `CC(=O)Nc1ccc(C(=O)NNC(=O)c2ccccc2-n2cccc2)cc1`, with 6.54%.
Then `COc1ccccc1N1CCN(c2nc(-c3ccccc3)cc(C(F)(F)F)n2)CC1`, with 12.8%; and `Cc1sc2ncn(CC(=O)NCCCC(=O)Nc3ccc(C(C)C)cc3)c(=O)c2c1C`, with -3.44%; and `CCOC(=O)Cc1csc(NC(=O)CSc2nnc(-c3ccc(F)cc3)o2)n1`, with 4.97%.
As for `CCc1cccc(C)c1NC(=O)CN(C)Cc1ccc(Br)cc1`, the “hERG current change (%, negative = inhibition) at 10uM” value came to 12.4%.
Then `CC(NC(=O)c1cc(-c2ccncc2)nc2ccc(Br)cc12)C1CCCO1` (centres unmarked), with -8.65%; and `CC(N=C(NS(=O)(=O)c1ccc(Cl)cc1)c1ccccc1)C(=O)O` (centres unmarked), with 11%; and `O=C(CO/N=C/c1ccc(OC(F)F)cc1)NC1CCCCC1`, with -8.59%.
Then `Cc1cccc(NC(=O)CN2C(=O)N/C(=C/c3cc(C)n(-c4ccncc4)c3C)C2=O)c1`, with 7.19%; and `O=S(=O)(Nc1ccc(-c2nnc(SCc3ccc(Cl)cc3)o2)cc1)c1ccccc1`, with 17.8%.
As to `Cc1nn(Cc2ccc(Cl)cc2)c(C)c1NC(=O)CSc1n[nH]c(C)c1[N+](=O)[O-]`, the “hERG current change (%, negative = inhibition) at 10uM” value is -14.9%.
Then `Cc1ccc(Cl)cc1N1CCN(Cc2cc(=O)n3ccsc3n2)CC1`, with -43%; and `CCN(c1ccc(OC)cc1)S(=O)(=O)c1nnc(NC(=O)C(C)C)s1`, with 18.2%; and `CCOc1cc(CNCCN2CCOCC2)ccc1OCc1ccccc1Cl.Cl`, with -41.8%.
To `CN(C)C(Cc1ccccc1)C(=O)c1c[nH]c2ccccc12.Cl` (centres unmarked) belongs 3.47%; to `COc1cccc(/C=N/NC(=O)c2cc3c(OC)cccc3[nH]2)c1OC`, 21.2%.
On to `COc1ccc(O)c(CN2CCC(n3nccc3NC(=O)c3ccccc3Cl)CC2)c1`, for which the “hERG current change (%, negative = inhibition) at 10uM” value is recorded as -40.6%.
`Cc1nn(C)c(Cl)c1/C=N/OC(=O)c1ccccc1`: the “hERG current change (%, negative = inhibition) at 10uM” value is given as 3.32%.
Then `CC(C)CC(NC(=O)C1CCC(=O)N1)C(=O)NC(CC(C)C)C(=O)N1CCCC1C(N)=O` (centres unmarked) ([pGlu]LLP-NH2; configuration not given here), with 19%; and `CC1CC(C)CN(S(=O)(=O)c2cccc3cccnc23)C1` (centres unmarked), with 1.46%; and `Br.N=c1n(CC(=O)c2ccc(Br)s2)c2ccccc2n1Cc1ccccc1`, with -61.7%.
For the compound `Cc1cc(Cl)c(S(=O)(=O)Nc2cccc(O)c2)cc1OCC(N)=O`, the “hERG current change (%, negative = inhibition) at 10uM” value is 14.9%.
On to `N/C(=N\OC(=O)c1ccoc1)c1ccc(Br)cc1`, for which the “hERG current change (%, negative = inhibition) at 10uM” value worked out at 3.25%.
To `CCOC(=O)c1c(C)n(C)c2ccc(OCC(O)CN(CC)CC)cc12.Cl` (centres unmarked) belongs 2.9%; to `CN1/C(=C\P(=O)(N(C)C)N(C)C)C(C)(C)c2ccccc21`, -6.64%.
To `CN(C)CCNC(=O)C1CCCNC1=O` (centres unmarked) belongs 4.72%.
Regarding `COc1ccc(CCC(=O)NNC(=O)Nc2cccc(Cl)c2)cc1`, the “hERG current change (%, negative = inhibition) at 10uM” value was found to be 6.87%.
As to `CC(NC(=O)Cn1cc2c(n1)CCCCC2)c1ccccc1` (centres unmarked), the “hERG current change (%, negative = inhibition) at 10uM” value stood at 1.69%.
In the case of `O=C(OCc1csc(-c2ccccc2)n1)c1ccc(O)cc1`, the “hERG current change (%, negative = inhibition) at 10uM” value is given as 6.2%.
On to `Fc1ccc(-c2cc(C(F)(F)C(F)F)[nH]n2)cc1`, for which the “hERG current change (%, negative = inhibition) at 10uM” value was 0.577%.
Regarding `CCCCC#Cc1ccc2c(c1)COc1c3ccccc3nn1-2`, the “hERG current change (%, negative = inhibition) at 10uM” value is listed as 7.84%.
On to `O=C(NNC(=O)c1ccc([N+](=O)[O-])cc1)NC1CCCCC1`, for which the “hERG current change (%, negative = inhibition) at 10uM” value is listed as 4.67%.
As for `Fc1ccc(/C=C\c2nccc3c2[nH]c2ccccc23)cc1`, the “hERG current change (%, negative = inhibition) at 10uM” value was 9.91%.
Then `Cc1nnc(SCCN2CCOCC2)n1C.O=C(O)C(=O)O`, with -4.35%.
Then `Cc1ccc(CNC(=O)C2CC(c3cc(C(F)(F)F)cc(C(F)(F)F)c3)=NO2)o1` (centres unmarked), with -12.1%; and `COc1ccccc1CN1CC(C(=O)NC2CCCCC2)CC1=O` (centres unmarked), with 6.2%.
To `COc1ccc(NC(=O)NC(C)c2ccc3c(c2)OCO3)c(OC)c1` (centres unmarked) belongs 19.1%.
As for `CC1=C(C(=O)Nc2ccc(C)cc2)C(c2cccs2)NC(=S)N1` (centres unmarked), the “hERG current change (%, negative = inhibition) at 10uM” value was -5.14%.
Consider `CC(CCc1ccccc1)NC(=O)C1CC1` (centres unmarked), for which the “hERG current change (%, negative = inhibition) at 10uM” value is 9.46%.
To `COc1ccc(S(=O)(=O)N[C@@H](CSCc2ccccc2)C(=O)O)cc1` belongs 11.3%; to `Cc1ccc(C(C(=O)NC2CCCCC2)N(Cc2ccccc2)C(=O)Cc2c[nH]c3ccccc23)o1` (centres unmarked), -8.07%.
Then `Cc1cccc(NC(=O)c2ccc([N+](=O)[O-])o2)c1C`, with 8.51%.
Then `CCOc1cc(/C=N/Nc2cc(C)nc(-n3nc(C)cc3C)n2)ccc1O`, with 3.09%.
For the compound `CCCCNC(=O)c1ccc(NC(C)=O)c(Cl)c1`, the “hERG current change (%, negative = inhibition) at 10uM” value is reported as 17.6%.
Then `Nc1ccc(-c2nc3cc(N)ccc3n2CCO)cc1`, with -2.75%.
To `Cc1cnn(-c2cc(N/N=C/c3ccccc3)ncn2)c1` belongs 1.23%; to `Cc1ccc(C(=O)NC2CC(C)(C)NC(C)(C)C2)cc1S(=O)(=O)N1CCCCC1`, -2.6%; to `CCCCNC(=O)CCn1nc(-c2ccccc2)c2ccccc2c1=O`, -12.1%.
In the case of `CCOc1ccc(-c2nnc3ccc(SCC(=O)NCc4ccco4)nn23)cc1`, the “hERG current change (%, negative = inhibition) at 10uM” value is on record as -8.72%.
To `CCCCS(=O)CC(COC)OC(=O)c1ccccc1` (centres unmarked) belongs 2.46%; to `Clc1ccccc1-c1nc2nc3ccccc3nc2n1-c1ccc2c(c1)OCO2`, -8.41%.
For `O=c1[nH]c(=S)[nH]c2sc3c(c12)CCCCCC3`, the “hERG current change (%, negative = inhibition) at 10uM” value is 20.1%.
Turning to `N#Cc1ccc(-c2csc(NNC(=O)c3ccccc3)n2)cc1`, the “hERG current change (%, negative = inhibition) at 10uM” value amounted to 0.0899%.
As for `COc1ccc(-c2ccc(CNCc3ccccn3)o2)cc1Cl.Cl`, the “hERG current change (%, negative = inhibition) at 10uM” value is -7.77%.
As for `CC1CCN(S(=O)(=O)c2ccc(-c3nnc(SCc4cccnc4)o3)cc2)CC1`, the “hERG current change (%, negative = inhibition) at 10uM” value is 7.2%.
To `Cc1cc(C)c(C#N)c(SCCN2CCOCC2)n1` belongs 11%; to `Cc1ccc(S(=O)(=O)N2CCCCC2)cc1C(=O)Nc1ccc(N2CCOCC2)cc1`, 3.62%.
Then `O=C(CSc1nc2ncc(Cl)cc2[nH]1)NC1CCS(=O)(=O)C1` (centres unmarked), with 32.4%; and `O=S(=O)(Nc1ccc(-c2csc(-c3ccccc3)n2)cc1)c1ccc(F)cc1`, with 11.3%.
Take `O=C(COc1ccc([N+](=O)[O-])cc1)Nc1ccc(S(=O)(=O)N2CCOCC2)cc1`: the “hERG current change (%, negative = inhibition) at 10uM” value was -53.8%.
With `CCOC(=O)N1CCN(C(=O)COc2cccc3c2CCN(Cc2cccc(C)c2)C3=O)CC1`, the “hERG current change (%, negative = inhibition) at 10uM” value is on record as -53.6%.
Then `Cc1ccc(S(=O)(=O)CC(O)COc2ccc(C#N)cc2)cc1` (centres unmarked), with -37.6%; and `N#Cc1ccc(-c2cn3c(n2)SCC3)cc1`, with -1.01%; and `CCN(Cc1ccccc1)S(=O)(=O)c1ccc(S(=O)(=O)N2CCN(CCC#N)CC2)cc1`, with 5.99%.
With `CCc1cccc2c(SC(C)C(=O)NCC3CCCO3)nc(-c3ccccc3)nc12` (centres unmarked), the “hERG current change (%, negative = inhibition) at 10uM” value turned out to be 7.04%.
On to `CCCc1nnc(SCC(=O)N(CC)CC)n1CC1CCCO1` (centres unmarked), for which the “hERG current change (%, negative = inhibition) at 10uM” value came out at 21.9%.
Take `Cc1cc(CN2C(=O)c3ccccc3C2=O)cc(N2CCOCC2)c1`: the “hERG current change (%, negative = inhibition) at 10uM” value is -18.9%.
Then `Cc1ccc(Nc2cc(C)nc(NCc3ccccc3)n2)cc1`, with -5.08%; and `NNC(=O)c1nn(-c2ccc(Cl)cc2)ccc1=O`, with -14.2%.
`O=C1NN=C(c2ccc(Cl)cc2)CC1c1c[nH]c2ccccc12` (centres unmarked): the “hERG current change (%, negative = inhibition) at 10uM” value is 45.6%.
For `COc1ccc(C)cc1NC(=O)c1ccc2c(c1)OCO2`, the “hERG current change (%, negative = inhibition) at 10uM” value is on record as -3.35%.
`Cc1cc2c(c(=O)n1C)C(C(C)C)C(C#N)=C(N)O2` (centres unmarked): the “hERG current change (%, negative = inhibition) at 10uM” value amounted to 8.61%.
To `Cc1[nH]nc2c1C1(CCOCC1)C(C#N)=C(N)O2` belongs -56.7%.
As to `Cc1cc(NC(=O)CSc2nc3ccsc3c(=O)n2CCCC(=O)NCCc2ccccc2)no1`, the “hERG current change (%, negative = inhibition) at 10uM” value is -1.03%.
Then `CCC(=O)c1cn(Cc2ccccc2C#N)c2ccccc12`, with -24.2%; and `Cc1c(C2(O)CCCCC2)[nH]c2ncccc12`, with 2.95%.
To `O=C(O)c1ccc(/C=N/NC(=O)c2cc3c(ccc4ccccc43)o2)cc1` belongs -0.13%.
Then `CCOC(=O)c1ccc(NC(=S)NNC(=O)c2cc(-c3cccnc3)nc3ccccc23)cc1`, with 20.9%; and `O=C1c2ccccc2C(Nc2ccc(Cl)cc2)N1CCN1CCOCC1` (centres unmarked), with -24.7%; and `CSc1n[nH]c(NC(=O)c2c(-c3c(Cl)cccc3Cl)noc2C)n1`, with 2.84%.
In the case of `O=C(NCCc1ccc(Cl)cc1)c1nnc(Cc2ccc(Cl)cc2)o1`, the “hERG current change (%, negative = inhibition) at 10uM” value was 10.1%.
In the case of `CC(=O)N(CCC(Cc1ccccc1)c1ccco1)Cc1ccco1` (centres unmarked), the “hERG current change (%, negative = inhibition) at 10uM” value was -28.4%.
Consider `Cc1cccc2[nH]c(CN(C)C(=O)CC3C(=O)NCCN3CC(C)(C)C)nc12` (centres unmarked), for which the “hERG current change (%, negative = inhibition) at 10uM” value is reported as 3.23%.
Consider `N=c1nc(-c2ccccc2)ccn1O`, for which the “hERG current change (%, negative = inhibition) at 10uM” value is given as 11.9%.
Consider `O=C(Nc1ccc(Cl)cc1)N1CCC(c2ccccc2)C1` (centres unmarked), for which the “hERG current change (%, negative = inhibition) at 10uM” value was -36.5%.
